Assay results: patent publication US10370538B2 (priority 2015, dated 2019)
Where two headings read alike, the source gives them in different places.

Experiments:
M. smegmatis = system: M. smegmatis
Experimental: FIGS. 5A-5C illustrate freshly cultured E. coli (TOP10), S. pneumoniae, S. aureus, S. sanguinis, C. propinquum, C. striatum and M. smegmatis were incubated with PBS, 10 μM of TG, TG-DNB1 or TG-DNB2 at room temperature for 1 h. Cells were washed stringently with PBS for 3 times then fixed in 10% formalin solution for 30 min before vizualized with a confocal microscope (63×/oil, Ex/Em-FITC).
FIG. 5C is a graphical plot of the mean fluorescence intensity from flow cytometry for indicated strains and probes. The fold increasing (F/FPBS) was calculated by normalizing against the fluorescence intensity of PBS-treated cells. Experiments were performed twice with similar results.
FIG. 8A is a series of digital overlay images. Freshly cultured E. coli (TOP10), E. coli expressing TEM1-β-lactamase, S. pneumoniae, S. aureus, S. sanguinis, C. propinquum, C. striatum, and M. smegmatis were incubated with PBS, 10 μM CDG1, CDG-DNB1, or CDG-DNB2 at room temperature for 1 h. Cells were washed 3 times PBS and then fixed in 10% formalin solution for 30 min before analyzed with a confocal microscope under 63×/oil, Ex/Em-FITC. Images show an overlap of bright field and green fluorescence.
FIG. 8C is graph illustrating the mean values of fluorescence intensity collected by flow cytometry were plotted with GraphPad PRISM 5. The fluorescence intensity of PBS treated cells of each strain was arbitrarily set as 1 to show the fold increasing (F/FPBS).
The TG-DNB analogues were further tested with a commonly used laboratory mycobacterium strain Mycobacterium smegamatis (M. smegmatis). E. coli strain TOP10, Streptococcus strains S. pneumoniae and S. sanguinis, Staphylococcus aureus, Corynebacteria propinquum and C. striatum were used as controls. S. pneumoniae and S. aureus are frequently found in the human respiratory tract and the skin (van der Poll & Opal (2009) Lancet 374:1543-1556; Cole et al., (2001) Clin. Diagn. Lab. Immunol. 8:1064-1069). Corynebacteria commonly colonize the skin and mucous membranes of human (Watkins et al., (1993) Clin. Infect. Dis. 17:21-25). S. sanguinis is a normal inhabitant of the human mouth where it is often found in saliva (Paik et al., (2005) Infect. Immun. 73(9):6064-6074). Among these control strains, E. coli is gram negative, all the other strains are gram positive with a thick cell wall.

BCG = settings: flow cytometry, 10 μM, room temperature, 1 h
Experimental: FIG. 9A is a series of images showing an overlap of bright field and green fluorescence. Freshly cultured BCG and Mycobacterium tuberculosis H37Rv were incubated with PBS, 10 μM CDG-1, or CDG-DNB2 at room temperature for 1 h. Cells were washed 3 times with PBS and then fixed in 10% formalin solution for 30 min before analyzed with a confocal microscope under 63×/oil, Ex/Em-FITC.
FIG. 9C illustrates a pair of graphs showing the mean values of fluorescence intensity collected by flow cytometry. The fluorescence intensity of PBS-treated cells of each strain was arbitrarily set as 1 to show the fold increasing (F/FPBS).
Without inclusion of the DprE-1-targeting group, CDG-1 can only be hydrolyzed by the β-lactamase BlaS expressed in M. smegmatis. […] Dual-targeting of BlaC and DprE1 in BCG and H37Rv: To estimate whether CDG-DNB2 can be utilized for the diagnosis of pathogenic mycobacteria, Bacillus Calmette-Guérin (BCG) and Mycobacterium tuberculosis (H37Rv), were tested. BCG is a vaccine prepared from the live bovine tuberculosis bacillus Mycobacterium bovis. It is widely used as an attenuated tuberculosis model due to its high similarity to human Mycobacterium tuberculosis. H37Rv is a typical strain of human Mycobacterium tuberculosis and expresses both β-lactamase BlaC and DprE1. […]

[1] = 10 μM, room temperature, 1 h, washed with PBS

SMILES	fluorescence labeling of M. smegmatis versus control strains (confocal images) (M. smegmatis)	fluorescence labeling of M. smegmatis versus control strains (confocal images) (M. smegmatis; [1])	fold increase of fluorescence intensity versus PBS treatment (F/FPBS) (M. smegmatis)	other results
Cc1cc(OCCn2cc(CNC(=O)c3cc([N+](=O)[O-])cc([N+](=O)[O-])c3)nn2)ccc1-c1c2ccc(=O)cc-2oc2cc(Oc3ccc(OCC4=C(C(=O)O)N5C(=O)[C@@H](NC(=O)Cc6ccccc6)[C@H]5SC45CC5)cc3)ccc12 [CDG-DNB1]	intense fluorescence signals compared to control bacterial strains			fluorescence intensity relative to CDG-DNB2 (M. smegmatis): half of the intensity of CDG-DNB2
Cc1cc(OCCNC(=O)c2cc([N+](=O)[O-])cc([N+](=O)[O-])c2)ccc1-c1c2ccc(=O)cc-2oc2cc(OCc3ccc(OCC4=C(C(=O)O)N5C(=O)[C@@H](NC(=O)Cc6ccccc6)[C@H]5SC45CC5)cc3)ccc12 [CDG-DNB2]		intense fluorescence signals compared to control bacterial strains		fold increase of fluorescence intensity versus PBS treatment (F/FPBS) (M. smegmatis; flow cytometry, 10 μM, room temperature, 1 h, washed): 80 fold; fold increase of fluorescence intensity over control levels, BCG (BCG): about 80 fold
Cc1ccccc1-c1c2ccc(=O)cc-2oc2cc(O)ccc12 [TG, Tokyo Green, reference compound]		Neither the solvent PBS (phosphate-buffered saline) nor the Tokyo Green (TG) fluorophore alone showed any fluorescence staining		
Cc1cc(OCCn2cc(CNC(=O)c3cc([N+](=O)[O-])cc([N+](=O)[O-])c3)nn2)ccc1-c1c2ccc(=O)cc-2oc2cc(O)ccc12 [TG-DNB1]	much higher fluorescence labeling of M. smegmatis than of control strains		50 fold	
Cc1cc(OCCNC(=O)c2cc([N+](=O)[O-])cc([N+](=O)[O-])c2)ccc1-c1c2ccc(=O)cc-2oc2cc(O)ccc12 [TG-DNB2]	much higher fluorescence labeling of M. smegmatis than of control strains		150 fold	
